Measurements taken from the RNAGym collection of RNA variant scans (doi:10.7554/elife.90254).
Read counts are not given, so values of variants with three or more changes are uncertain.

B1: LINE1-mini (parent)
chain: GGCAGAGCUCAACACAGCGUGGCAAAGUGGCUGUGGCUAGACUGCC

Variants of: B1
Test: self-cleavage, relative activity (ratio to wild type); higher = more cleavage; in vitro, sequencing; the parent is a self-cleaving ribozyme
A12U A25G G27A showed a self-cleavage of 0.01.
In the case of C3G G7A G30C, the self-cleavage is reported as 0.86.
For C3U A6U G21U, the self-cleavage was 0.99.
With C10A C18G A24G U34G the self-cleavage was 0.04.
For C3U C10A C18G U32A, the self-cleavage was 0.01.
Variant C8G U9A C42U has a self-cleavage of 0.03.
Work on A12G G29U G44A yielded a self-cleavage of 0.06.
G2A G5U A6U G7U C15U G36A showed a self-cleavage of 0.62.
In the case of G7U U20A G36C, the self-cleavage is reported as 0.13.
Variant G17A G30A G35U C42A has a self-cleavage of 0.01.
Work on A6C A12C C13A A16C G29U C37U A41C yielded a self-cleavage of 0.04.
Work on G7U A25C G44U yielded a self-cleavage of 0.07.
G2C C3U C31G C45U showed a self-cleavage of 0.03.
Variant G2C G5U C13A C18G has a self-cleavage of 0.07.
For C3U G40C A41C C46G, the self-cleavage was 0.11.
Variant G5U A26C U38A has a self-cleavage of 0.07.
For C8G A25G G27A C37A, the self-cleavage was 0.1.
With C3A G17U G33C G40A the self-cleavage was 0.14.
Variant C3U G5A U32A has a self-cleavage of 0.06.
Variant U9G C10A U28G has a self-cleavage of 0.01.
Variant G22A A41U C45G has a self-cleavage of 0.22.
Work on G7C A16G U38A yielded a self-cleavage of 0.
C8A G40U A41G gave a self-cleavage of 0.22.
Work on A12C C18A C37U yielded a self-cleavage of 0.01.
With C3U C8U C10U the self-cleavage was 0.14.
With A11G A16U A39C G40U the self-cleavage was 0.01.
Variant A14G G17U A25U U28G has a self-cleavage of 0.03.
In the case of A6G U28A G29A U34A, the self-cleavage is reported as 0.11.
For C15G A26G G27C A39C, the self-cleavage was 0.02.
Work on A14C G19C G30U yielded a self-cleavage of 0.03.
In the case of A6G C8A A12G A14G A26C, the self-cleavage is reported as 0.03.
A16U G17U G35C U38G C42U showed a self-cleavage of 0.02.
For C10A G35C U43A, the self-cleavage was 0.05.
C3G G17U G35A A39C gave a self-cleavage of 0.03.
C15A G27A C45A showed a self-cleavage of 0.05.
With C10U G36A G40A the self-cleavage was 0.04.
G22U C23A C45G showed a self-cleavage of 0.9.
Variant C3A A6G C10U G27A has a self-cleavage of 0.26.
For G5U A26G C31A, the self-cleavage was 0.04.
Variant A12C C18U U43C has a self-cleavage of 0.04.
For A6U C8G A41C, the self-cleavage was 0.32.
For G1A G2U A6G, the self-cleavage was 0.08.
G5C C18A G40U showed a self-cleavage of 0.12.
In the case of A12G G17A G29U, the self-cleavage is reported as 0.07.
A16U U32G C45A showed a self-cleavage of 0.08.
In the case of A16G C23U C45G, the self-cleavage is reported as 0.03.
C3A G7C G22U C23A G33U gave a self-cleavage of 0.34.
Work on C23U G29A C31A yielded a self-cleavage of 0.49.
In the case of G2U A24G G29U C31A, the self-cleavage is reported as 0.02.
In the case of U9G G22A G36C, the self-cleavage is reported as 0.02.
Variant U20C A24G U28A U32G has a self-cleavage of 0.2.
For G19U C23A A24C C37G U38C, the self-cleavage was 0.
With A16G G19A C42A the self-cleavage was 0.01.
G2A G21U C31A G33C gave a self-cleavage of 0.04.
Work on A14G C23A G35U yielded a self-cleavage of 0.06.
In the case of G19C G21A A24U, the self-cleavage is reported as 0.17.
In the case of G17U G36U G44C, the self-cleavage is reported as 0.06.
For G2C A4U C31U, the self-cleavage was 0.03.
With A4U G5A C37A G44U the self-cleavage was 0.02.
In the case of G7C G21C A41C, the self-cleavage is reported as 0.05.
Variant G33U G35C C42G has a self-cleavage of 0.16.
Work on A6C G7A G17U G44C yielded a self-cleavage of 0.04.
For C10G C15U C31U G44U, the self-cleavage was 0.03.
Variant G1A U20A G44C has a self-cleavage of 0.21.
A16G G22A G36A showed a self-cleavage of 0.18.
G1C C37A G40C G44A showed a self-cleavage of 0.04.
G5U G7U A16U G17U U20A A24C U34A showed a self-cleavage of 0.02.
G7U C13U C18U C23A A39U G44U C45U gave a self-cleavage of 0.25.
With A4G A16G A41U the self-cleavage was 0.18.
In the case of A6C C10A G19A G21C, the self-cleavage is reported as 0.16.
For U9G G22A G29U U32G, the self-cleavage was 0.02.
In the case of A11C A12C C18G, the self-cleavage is reported as 0.03.
In the case of C18U G33U U34A, the self-cleavage is reported as 0.07.
Work on A14C A39U C42U C46A yielded a self-cleavage of 0.04.
Work on U20G G29C A41U yielded a self-cleavage of 0.14.
C3G G19U G22U A25C G36A showed a self-cleavage of 0.1.
Work on C15A G40U A41G C45G yielded a self-cleavage of 0.01.
G2A C10A U20G C23U G35A A41U C42G showed a self-cleavage of 0.02.
Work on G22U G29C U38C yielded a self-cleavage of 0.12.
Work on C23U A24C G27U U28C yielded a self-cleavage of 0.39.
Variant C3A G17A G22A has a self-cleavage of 0.13.
With A4C G5U C13A the self-cleavage was 0.26.
A6C A12G A16U A25U G27C G33U gave a self-cleavage of 0.03.
For G1U A12G A14C, the self-cleavage was 0.01.
C15A C37A U38C gave a self-cleavage of 0.03.
G2A C13U A16U C45A showed a self-cleavage of 0.4.
Work on A4U A11U G29A yielded a self-cleavage of 0.03.
C3U G5U A12U C13U C37G showed a self-cleavage of 0.54.
In the case of G36U A39G G40C, the self-cleavage is reported as 0.05.
For C15U C31U U38G, the self-cleavage was 0.03.
In the case of G5C C31G G35U, the self-cleavage is reported as 0.02.
C13G C18A G21C G22U G33U showed a self-cleavage of 0.02.
A6C U9A G35C G44C gave a self-cleavage of 0.04.
Work on G5A U9G A25C G27C G35A yielded a self-cleavage of 0.03.
In the case of G29C G40C C46A, the self-cleavage is reported as 0.02.
In the case of C13U C18A G27A, the self-cleavage is reported as 0.03.
With C3A A26U C46A the self-cleavage was 0.15.
C10A A12G C15G C23A U43A gave a self-cleavage of 0.
Work on A6U C15A G27C U28G C31U G40A G44A yielded a self-cleavage of 0.02.
For U20C U34G G40A, the self-cleavage was 0.03.
For A11G A26G U28A, the self-cleavage was 0.
C10G G19A U32G U38G G40A gave a self-cleavage of 0.01.
G33U A39U A41G showed a self-cleavage of 0.12.
C15U U20A G40C G44C gave a self-cleavage of 0.06.
With A14C U32C G35C the self-cleavage was 0.
In the case of G1A C3A C42U, the self-cleavage is reported as 0.9.
With G2U C3A G7A C23G A26C G40U the self-cleavage was 0.1.
With C18A G19A A26C C37U G44U the self-cleavage was 0.08.
For G5U C15U C31A G35A C37G, the self-cleavage was 0.
For A4C C15U U28G C42G, the self-cleavage was 0.35.
Work on C8U G17A A25U U38G yielded a self-cleavage of 0.02.
In the case of C10A G22U A26G C46U, the self-cleavage is reported as 0.03.
For C10A C15A U28G, the self-cleavage was 0.02.
G1C A25U G27A C46U gave a self-cleavage of 0.19.
For C3A C15U U43G G44C, the self-cleavage was 1.55.
In the case of C3A G7C A14G C46A, the self-cleavage is reported as 0.04.
U20A G29U C46A showed a self-cleavage of 0.45.
With G17A A26C A41C the self-cleavage was 0.01.
For A14C U20G G35A, the self-cleavage was 0.06.
For C23A G36A A39U G40U G44A, the self-cleavage was 0.09.
C15A C23U G35U C42G showed a self-cleavage of 0.03.
Variant A6G C23A G35U A39C has a self-cleavage of 0.4.
A16G G19C C46A gave a self-cleavage of 0.67.
A16U G19A G21U G29C G30U G33U U43C gave a self-cleavage of 0.01.
Work on A4C C13G A26C yielded a self-cleavage of 0.45.
In the case of C3U A11C G21C G22A G33U U43A G44A, the self-cleavage is reported as 0.01.
Variant G22A U32A U34A C42A has a self-cleavage of 0.11.
Variant C3G G7C C8U G29U G35U A41G has a self-cleavage of 0.14.
Variant A6C A26C C37A C46G has a self-cleavage of 0.06.
For A12G A16G C42G, the self-cleavage was 0.01.
For A4G G22A U28C, the self-cleavage was 0.09.
C13G C42A C45U gave a self-cleavage of 0.1.
For G7U A11U C18A G22C, the self-cleavage was 0.01.
In the case of G1C A24U C31G, the self-cleavage is reported as 0.02.
Work on C3A C8A G17A yielded a self-cleavage of 0.41.
A6G G7U A16G A25C C42A showed a self-cleavage of 0.02.
Work on C10A A14G G21U C45A yielded a self-cleavage of 0.05.
Variant C13U A14G C37U has a self-cleavage of 0.14.
For A4U G7U C8U U9G, the self-cleavage was 0.04.
For A4C G17U C45U, the self-cleavage was 0.02.
With A12U C31U G35U the self-cleavage was 0.03.
Variant A6U C10A G27A G36A has a self-cleavage of 0.01.
In the case of C18A A26C C37A U38G A41C C42A G44C, the self-cleavage is reported as 0.02.
Work on C3G G22A G29C G36A yielded a self-cleavage of 0.14.
A4C C8G C23G gave a self-cleavage of 0.09.
C10A C13A G40A gave a self-cleavage of 0.02.
With A4U A16G C18U C23A A25C G40C the self-cleavage was 0.
Variant A4U A11U G21C C42G has a self-cleavage of 0.
For A6U A11C A14G C42G, the self-cleavage was 0.01.
With C18U U32G G40C the self-cleavage was 0.04.
C23A G27C G29U G30U G33C G40A gave a self-cleavage of 0.04.
With C3A G5U U28A the self-cleavage was 0.25.
For A4C A11U U34G G35C C46G, the self-cleavage was 0.02.
G27C G36U G44U showed a self-cleavage of 0.09.
In the case of A11C G27A U34A, the self-cleavage is reported as 0.
With C3U U9G C37G the self-cleavage was 0.05.
G17U C23U U32C showed a self-cleavage of 0.04.
For A6G G17U G22U C23A, the self-cleavage was 1.9.
Variant C31A G33U G36A has a self-cleavage of 0.11.
A4G G7U G22A U28G gave a self-cleavage of 0.04.
G1C G7U G21C C45G gave a self-cleavage of 0.01.
G2U C18U A26G G33A G40U gave a self-cleavage of 0.05.
In the case of C10A C15A G17U A41C, the self-cleavage is reported as 0.01.
In the case of A24C G35A G36A C42A, the self-cleavage is reported as 0.01.
Work on G29A G36C A39C yielded a self-cleavage of 0.05.
For G7U G17U A25U G35U, the self-cleavage was 0.02.
Variant C3G C37A C46A has a self-cleavage of 0.19.
